Experimental data: the RNAGym collection of RNA variant scans (doi:10.7554/elife.90254)
Read counts are not given, so values of variants with three or more changes are uncertain.

B1: LINE1-mini (parent)
chain: GGCAGAGCUCAACACAGCGUGGCAAAGUGGCUGUGGCUAGACUGCC

Variants of: B1
Assay: self-cleavage, relative activity (ratio to wild type); higher = more cleavage; in vitro, sequencing; the parent is a self-cleaving ribozyme

Row | Variant | self-cleavage
1 | G5A C31U C37U | 0.13
2 | G5A A24C A26C | 0.07
3 | G5A C13A G19U C42G U43A | 0.07
4 | G5A A14C U43A | 0.12
5 | A4U U28C U32C | 0.03
6 | G5A C10U C18U A25U G33U | 0.08
7 | G5A G7C A12U C13A G35A | 0.4
8 | G5A G7U C13U G17C G22A A41G | 0.44
9 | G5A G7U C10G | 0.02
10 | G5A G7U C10U | 0.09
11 | G5A C23G C46A | 0.35
12 | G5A G7C U9A A14G C15A | 0.22
13 | G5A C13U G29U | 0.13
14 | G5A G7C G35U | 0.08
15 | G5A C13G C18G G21U A24U G27C G40A | 0.04
16 | G5A C15U A26C G30A U34G | 0.04
17 | G5A A6U U20A A26C | 0.07
18 | G5A C8A C31G C37A | 0.03
19 | G5A A14C G21C | 0.15
20 | G5A A6U A11U A16G U32A A39C | 0.01
21 | G5A C8G C46A | 0.15
22 | G5A C13U A16G G17U A39G C46G | 0.06
23 | G5A C23A G33U | 0.09
24 | G5A A24U C46U | 0.09

Row | Variant | self-cleavage
25 | G5A C23U G27A U28G C45U | 0.05
26 | G5A C8G C45U | 0.28
27 | G5A C37A U38A | 0.05
28 | G5A C13U C46G | 0.02
29 | G5A G7C A12C C13A U38A | 0.03
30 | G5A C10A A26C A39G C45U | 0.01
31 | G5A C37G C42G | 0.01
32 | G5A C10G A14G | 0.02
33 | G5A C10A A11G C18A | 0.03
34 | G5A A24U G35U U43A G44C | 0.05
35 | G5A A41U G44U | 0.05
36 | G5A G19C G40U | 0.07
37 | G5A C13U G22U U34C | 0.19
38 | G5A A24C G36A C37A C45G | 0.04
39 | G5A C37U C42U U43A | 0.02
40 | G5A C8U U9G A26G G40U | 0.01
41 | G5A C13G G17U | 0.19
42 | G5A G7A U28C U34C | 0.11
43 | G5A C10U A14G | 0.22
44 | G5A G19U G29U G35U | 0
45 | G5A C18A G29C U32A G33U | 0.02
46 | G5A C10U A11C C15A C18U G27C G33U U34G C46U | 0.01
47 | G5A A11C G33U | 0.02
48 | A4U U43A G44U | 0.31

Row | Variant | self-cleavage
49 | G5A A6G G21U | 0.03
50 | G5A A6G G21A | 0.05
51 | G5A C42A U43A | 0.05
52 | G5A G17U A26G | 0.06
53 | G5A C15U C23G A25G | 0.02
54 | G5A G7U G21A G27U | 0.09
55 | G5A C37G C45U C46G | 0.01
56 | G5A A6C G44U | 0.08
57 | G5A C23U C37U G40U G44A | 0.03
58 | G5A C18U G44U C45U | 0.03
59 | G5A A11U C31G | 0.01
60 | G5A C15A G22C G27A G36U | 0.04
61 | G5A G19U G21A A25U | 0.41
62 | G5A A6C G19U A25U | 0.29
63 | G5A A25G G33C | 0.03
64 | G5A C8A G22C C23G U28C A41G | 0.07
65 | G5A A12U C15U U28G U34A | 0.01
66 | G5A G7C A26G | 0.11
67 | G5A C10A C15A A39C | 0.04
68 | G5A A26C G35U G36A | 0.05
69 | G5A C10A A14U | 0.04
70 | G5A C15G G27C | 0
71 | G5A C15G G17C C31G U38G | 0.03
72 | G5A C10A A41G | 0.02

Row | Variant | self-cleavage
73 | G5A C15G C31G G35U | 0.07
74 | G5A A14U G40C U43A C45A | 0.04
75 | G5A A14G A24U U38G | 0.1
76 | G5A C8U C13A C37G U43C | 0.23
77 | G5A G19C U34C | 0.07
78 | G5A A6G A26U | 0.13
79 | A4U U32A A39G C46A | 0.09
80 | G5A C13A C31U | 0.06
81 | G5A A16U G30C | 0.06
82 | G5A C8G A14U C23A C31G U32A | 0.05
83 | G5A G19A A24U G33U | 0.04
84 | G5A G17C A39U | 0.12
85 | G5A C8G U38C C45U | 0.07
86 | G5A A6C G7C A16C A39U | 0.02
87 | G5A A14C G22A | 0
88 | G5A C15A G22C U38C U43C C46U | 0
89 | G5A G7A A11C C13G C15U G33U C37U U38C | 0.02
90 | G5A A16C U38G C42U | 0.01
91 | G5A G7U G17A | 0.13
92 | G5A A39C C42U | 0.06
93 | A4U U28C U38A C45A | 0.02
94 | G5A C18A C37U | 0.08
95 | G5A C10G U20G U32A | 0.01
96 | G5A C37U G40A | 0.12

Row | Variant | self-cleavage
97 | G5A C8U A25U G30A U38C | 0.08
98 | G5A C13A C18A G40U | 0.02
99 | G5A C13A A24U | 0.06
100 | G5A A14C A16C C37G | 0.25
101 | G5A C13A A26U G27C U34G | 0.04
102 | G5A A6G C15A | 0.09
103 | G5A A6U G22A C42A | 0.04
104 | G5A A6U A16G | 0.11
105 | G5A A25C G36A C45A C46U | 0.05
106 | G5A C8U A12G | 0.02
107 | G5A C31U C37G C46A | 0.03
108 | G5A G19A A24G | 0.31
109 | G5A C15U U20G | 0.1
110 | G5A C18A A24U G29A G30A C37A U43C C46U | 0.02
111 | G5A G7U G33A | 0.1
112 | G5A C31U G35C | 0.16
113 | G5A C8A G27A G35A C46U | 2.44
114 | G5A C8G G19A C45U | 0.02
115 | G5A G7U A11G A16C U43G | 0
116 | G5A A16U G17A U38C | 0.14
117 | G5A A6C U20G | 0.08
118 | G5A A12C A14U | 0.12
119 | G5A A11U G21C G30U | 0.03
120 | G5A A26U U32G G40U | 0.03

Row | Variant | self-cleavage
121 | G5A C13A C15A C42G | 0.06
122 | G5A C10U C18A U32G C37U | 0.02
123 | G5A C8A G36U G44C | 0.07
124 | G5A G7A G21A | 0.89
125 | G5A A14U C18U G22A C23A U28C C31G | 0.03
126 | G5A C10A A25G A26C C37G | 0.01
127 | G5A A16U G44A | 0.07
128 | G5A A11U A12U C46U | 0.02
129 | G5A C10G U38C C42U | 0.01
130 | G5A G7A A12C A25U G30A G44C | 0.04
131 | G5A G21A A41C C42A | 0.05
132 | G5A C15U G33A | 0.25
133 | G5A A6C G21C G22U U28G G29U A41U G44U C45U | 0.03
134 | G5A A6U G35U | 0.11
135 | G5A C10A A11G | 0.02
136 | G5A A6G G19A | 0.1
137 | G5A A12U C31A | 0.07
138 | G5A C18U G35U A41C | 0.02
139 | G5A C23G A25G G35C U38G | 0
140 | G5A A16U G35C | 0.11
141 | G5A A26C G30A U38G | 0.01
142 | G5A C8A C10G C23U C31A G40A C45G | 0.02
143 | G5A A12C A26U | 0.04
144 | G5A C8G C13G C46G | 0.1

Row | Variant | self-cleavage
145 | G5A C10G U32C G36U C37A | 0
146 | G5A G7A C23G G44U | 0.05
147 | G5A A11C G22A G27A A41C | 0.02
148 | G5A C45G C46A | 0.16
149 | G5A G7A U9C | 0.05
150 | A4U U28A A39C A41C | 0.06
151 | G5A A6G U20C | 0.04
152 | G5A G7C A12C G21U | 0.37
153 | G5A C15A A39C | 0.18
154 | G5A C31U G44A | 0.04
155 | G5A A16G U43G C45U | 0
156 | G5A C18A G27A A39G | 0.03
157 | G5A C13U A14G | 0.03
158 | G5A A6U G22U C45A | 0.15
159 | G5A A11U U38C G40U | 0.04
160 | G5A A39U A41C U43G | 0.01
161 | G5A C10U C42U | 0.14
162 | G5A G17A U34G | 0.06
163 | G5A G17A G30U | 0.08
164 | G5A C8A A12G | 0.18
165 | G5A C8A C10A G21U | 0.04
166 | G5A A24G U38G C45G | 0.01
167 | G5A G7A C13A U20A G22A | 0.83
